Results on 64 cell lines are retold here after the supplement of paper PMC4967469.

By IC50 is meant the dose at which the fit gives 50% viability; fits outside the tested doses are given as limits. AUC sums up the same curve from the lowest dose to the 256-fold higher top dose; the more sensitive the line, the further below 1. A top dose marked as inferred was derived from the fitted curves, not read from the paper.

Compound in this test: Cc1ccc(-c2c(C(=O)CF)n(CCCO)c3ncnc(N)c23)cc1 [FMK]
In words: Viability of human cancer cell lines after 72 h of drug (GDSC screen). The conditions noted are these: top dose inferred. As for the experimental part: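 Human cancer cell lines in 384-well plates, medium with 10% serum, drug for 72 h over a 256-fold dose range (nine 2-fold or five 4-fold steps up to the top dose). Adherent lines were fixed and stained with the nucleic acid dye Syto60, suspension lines read with resazurin; signal relative to control wells, capped at 0 and 100%. One two-parameter sigmoid per drug and line, fitted in a mixed model over all curves with the slope shared within a line.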
Take “MFE-319 (endometrium, adherent, top dose 20 µM)”: the AUC amounted to 0.988 and the IC50 was above 20 µM.

On to “MFH-ino (soft tissue, adherent, top dose 20 µM)”, for which the AUC amounted to 0.982 and the concentration for half-maximal inhibition (IC50) was above 20 µM.

As for “MFM-223 (breast, adherent, top dose 20 µM)”, the AUC was 0.989 and the concentration for half-maximal inhibition (IC50) is above 20 µM.

For the cell line “MG-63 (osteosarcoma, adherent, top dose 20 µM)”, the AUC worked out at 0.984 and the IC50 was above 20 µM.

On to “MHH-ES-1 (Ewing sarcoma, adherent, top dose 20 µM)”, for which the AUC is 0.955 and the IC50 was above 20 µM.

“MHH-PREB-1 (B-cell leukaemia, suspension, top dose 20 µM)”: the AUC is 0.989 and the IC50 was above 20 µM.

Take “MIA-PaCa-2 (pancreas, adherent, top dose 20 µM)”: the AUC is 0.983 and the IC50 is above 20 µM.

Take “MKN1 (stomach, adherent, top dose 20 µM)”: the AUC was 0.97 and the IC50 is above 20 µM.

Take “MKN28 (stomach, adherent, top dose 20 µM)”: the AUC was determined as 0.982 and the IC50 was above 20 µM.

On to “MKN45 (stomach, adherent, top dose 20 µM)”, for which the AUC is 0.981 and the IC50 is above 20 µM.

On to “ML-1 (thyroid, adherent, top dose 10.24 µM)”, for which the AUC stood at 0.934 and the IC50 is above 10.2 µM.

As to “ML-2 (acute myeloid leukaemia, suspension, top dose 20 µM)”, the AUC stood at 0.937 and the IC50 is above 20 µM.

Regarding “MLMA (hairy cell leukaemia, semi-adherent, top dose 20 µM)”, the AUC worked out at 0.942 and the IC50 was above 20 µM.

“MMAC-SF (melanoma, adherent, top dose 20 µM)”: the AUC came to 0.944 and the IC50 is above 20 µM.

As for “MN-60 (B-cell leukaemia, suspension, top dose 20 µM)”, the AUC stood at 0.978 and the half-maximal inhibitory concentration (IC50) is above 20 µM.

Regarding “MOG-G-CCM (glioma, adherent, top dose 20 µM)”, the AUC came to 0.964 and the IC50 is above 20 µM.

As to “MOG-G-UVW (glioma, adherent, top dose 20 µM)”, the AUC worked out at 0.967 and the IC50 is above 20 µM.

Regarding “MOLM-13 (acute myeloid leukaemia, suspension, top dose 20 µM)”, the AUC was 0.804 and the concentration for half-maximal inhibition (IC50) was determined as 9.24 µM.

In the case of “MOLP-8 (myeloma, suspension, top dose 20 µM)”, the AUC turned out to be 0.908 and the IC50 was above 20 µM.

In the case of “MOLT-4 (lymphoblastic leukaemia, suspension, top dose 20 µM)”, the AUC came to 0.947 and the IC50 was above 20 µM.

Regarding “MONO-MAC-6 (acute myeloid leukaemia, suspension, top dose 20 µM)”, the AUC was 0.874 and the IC50 is above 20 µM.

In the case of “MRK-nu-1 (breast, suspension, top dose 20 µM)”, the AUC came out at 0.99 and the half-inhibitory concentration (IC50) is above 20 µM.

For “MS751 (cervix, adherent, top dose 20 µM)”, the AUC came out at 0.99 and the IC50 is above 20 µM.

For the cell line “MS-1 (small cell lung carcinoma, suspension, top dose 20 µM)”, the AUC was found to be 0.973 and the IC50 is above 20 µM.

Consider “MSTO-211H (mesothelioma, adherent, top dose 20 µM)”, for which the AUC is 0.99 and the IC50 is above 20 µM.

Take “MV-4-11 (leukaemia, suspension, top dose 20 µM)”: the AUC worked out at 0.914 and the half-inhibitory concentration (IC50) was above 20 µM.

As to “MZ1-PC (pancreas, adherent, top dose 20 µM)”, the AUC was found to be 0.952 and the IC50 was above 20 µM.

On to “MZ2-MEL (melanoma, adherent, top dose 20 µM)”, for which the AUC worked out at 0.963 and the IC50 is above 20 µM.

Take “MZ7-mel (melanoma, adherent, top dose 20 µM)”: the AUC stood at 0.978 and the IC50 was above 20 µM.

For “Mewo (melanoma, adherent, top dose 20 µM)”, the AUC turned out to be 0.984 and the IC50 is above 20 µM.

Take “Mo-T (hairy cell leukaemia, suspension, top dose 20 µM)”: the AUC is 0.928 and the IC50 is above 20 µM.

Turning to “NALM-6 (B-cell leukaemia, suspension, top dose 20 µM)”, the AUC was determined as 0.959 and the IC50 is above 20 µM.

Consider “NAMALWA (Burkitt lymphoma, suspension, top dose 20 µM)”, for which the AUC stood at 0.964 and the IC50 was above 20 µM.

On to “NB5 (neuroblastoma, adherent, top dose 20 µM)”, for which the AUC came out at 0.983 and the IC50 is above 20 µM.

On to “NB69 (neuroblastoma, adherent, top dose 20 µM)”, for which the AUC amounted to 0.954 and the IC50 is above 20 µM.

As to “NB-4 (acute myeloid leukaemia, suspension, top dose 20 µM)”, the AUC worked out at 0.94 and the IC50 was above 20 µM.

As for “NCI-H23 (lung adenocarcinoma, adherent, top dose 20 µM)”, the AUC came out at 0.983 and the IC50 is above 20 µM.

In the case of “NCI-H69 (small cell lung carcinoma, suspension, top dose 20 µM)”, the AUC was 0.974 and the 50% inhibitory concentration (IC50) was above 20 µM.

Consider “NCI-H82 (small cell lung carcinoma, suspension, top dose 20 µM)”, for which the AUC amounted to 0.984 and the IC50 was above 20 µM.

For “NCI-H196 (small cell lung carcinoma, adherent, top dose 20 µM)”, the AUC came to 0.971 and the IC50 was above 20 µM.

For “NCI-H211 (small cell lung carcinoma, adherent, top dose 20 µM)”, the AUC worked out at 0.98 and the IC50 is above 20 µM.

Take “NCI-H226 (lung squamous cell carcinoma, adherent, top dose 20 µM)”: the AUC was determined as 0.985 and the IC50 was above 20 µM.

With “NCI-H292 (lung adenocarcinoma, adherent, top dose 20 µM)”, the AUC was determined as 0.968 and the IC50 was above 20 µM.

Take “NCI-H322M (lung adenocarcinoma, suspension, top dose 20 µM)”: the AUC was 0.971 and the IC50 was above 20 µM.

Turning to “NCI-H345 (small cell lung carcinoma, suspension, top dose 20 µM)”, the AUC came out at 0.91 and the IC50 is above 20 µM.

For “NCI-H358 (lung adenocarcinoma, adherent, top dose 20 µM)”, the AUC was 0.937 and the IC50 was above 20 µM.

With “NCI-H441 (lung adenocarcinoma, adherent, top dose 20 µM)”, the AUC is 0.977 and the half-inhibitory concentration (IC50) was above 20 µM.

Turning to “NCI-H446 (small cell lung carcinoma, semi-adherent, top dose 20 µM)”, the AUC is 0.98 and the IC50 is above 20 µM.

“NCI-H460 (large cell lung carcinoma, adherent, top dose 20 µM)”: the AUC stood at 0.99 and the IC50 was above 20 µM.

Regarding “NCI-H510A (small cell lung carcinoma, semi-adherent, top dose 20 µM)”, the AUC came out at 0.982 and the IC50 was above 20 µM.

As for “NCI-H520 (lung squamous cell carcinoma, adherent, top dose 20 µM)”, the AUC is 0.97 and the IC50 was above 20 µM.

With “NCI-H522 (lung adenocarcinoma, adherent, top dose 20 µM)”, the AUC was found to be 0.981 and the IC50 is above 20 µM.

With “NCI-H524 (small cell lung carcinoma, suspension, top dose 20 µM)”, the AUC is 0.981 and the IC50 was above 20 µM.

Regarding “NCI-H526 (small cell lung carcinoma, suspension, top dose 20 µM)”, the AUC is 0.987 and the 50% inhibitory concentration (IC50) was above 20 µM.

On to “NCI-H596 (lung adenocarcinoma, adherent, top dose 20 µM)”, for which the AUC worked out at 0.971 and the half-maximal inhibitory concentration (IC50) was above 20 µM.

Consider “NCI-H630 (large intestine, adherent, top dose 20 µM)”, for which the AUC was determined as 0.977 and the IC50 is above 20 µM.

Regarding “NCI-H647 (non-small cell lung carcinoma, adherent, top dose 20 µM)”, the AUC is 0.958 and the IC50 is above 20 µM.

In the case of “NCI-H650 (lung adenocarcinoma, adherent, top dose 20 µM)”, the AUC was 0.979 and the IC50 is above 20 µM.

With “NCI-H661 (large cell lung carcinoma, adherent, top dose 20 µM)”, the AUC came to 0.976 and the IC50 was above 20 µM.

For the cell line “NCI-H716 (large intestine, suspension, top dose 20 µM)”, the AUC was 0.944 and the IC50 is above 20 µM.

As to “NCI-H720 (lung carcinoid, suspension, top dose 20 µM)”, the AUC stood at 0.992 and the half-inhibitory concentration (IC50) is above 20 µM.

Take “NCI-H727 (lung carcinoid, adherent, top dose 20 µM)”: the AUC turned out to be 0.944 and the IC50 was above 20 µM.

Take “NCI-H747 (large intestine, adherent, top dose 20 µM)”: the AUC came to 0.882 and the IC50 was above 20 µM.

For the cell line “NCI-H810 (large cell lung carcinoma, adherent, top dose 20 µM)”, the AUC was determined as 0.988 and the IC50 is above 20 µM.
